This note sets out measurements from PubChem BioAssay (NCI).

Each structure is given as a SMILES string.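 Method: 48-hour compound exposure of cells in 96-well plates, five concentrations, linear interpolation of endpoints. GI50: concentration for 50% inhibition of growth. TGI: concentration producing complete growth inhibition.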 A value given as a limit tells only on which side of the number the result lay.

The test system of this test is NCI-H322M lung. In words: inhibition of tumour cell growth, NCI panel, 48 h.

For the compound `COc1ccc(CCN(C)C2CCC(C#N)(c3ccc(OC)c(OC)c3)CC2)cc1OC` (stereo not given), the TGI is > 100 µM. Consider `CCC[CH2][Sn]([CH2]CCC)([O]C(=O)c1ccc(OC)c(OC)c1OC)[O][Sn]([CH2]CCC)([CH2]CCC)[O]C(=O)c1ccc(OC)c(OC)c1OC`, for which the GI50 is 1.2 µM and the TGI is 2.44 µM.

For `Cc1nnc(Nc2ccc(NC(=O)Nc3ccc(Cl)cc3)cc2)c2ccccc12`, the GI50 was 3.31 µM and the TGI came to 12.5 µM. On to `COc1cc2c(cc1OC)C(C(c1ccccc1)c1ccccc1)N(C)CC2` (stereo not given), for which the TGI is > 100 µM. With `Cc1ccc(/C=N\NC2c3cc(Cl)ccc3Nc3nc(=O)[nH]c(C)c32)cc1` (stereo not given), the TGI is > 100 µM. In the case of `CCC(C)(C)c1ccc(OCCCCNC(=O)c2ccc3ccccc3c2O)c(C(C)(C)CC)c1`, the TGI is > 100 µM.

In the case of `O=C(Nc1ccc(Br)cc1F)c1cc(Cl)ccc1O`, the GI50 is 0.418 µM and the TGI was > 26.6 µM. Compound `Cc1nc(Nc2ccc(Cl)cc2)sc1C(=O)NNC(=S)NN` came in with a TGI of 46.2 µM. In the case of `C[n+]1c(/C=C/c2c(O)ccc3ccccc23)ccc2ccccc21`, the GI50 is 5.58 µM and the TGI came to 12.6 µM. As for `BrC(=C(c1ccc(OC2CCCCO2)cc1)c1ccc(OC2CCCCO2)cc1)c1ccccc1` (stereo not given), the TGI is > 100 µM. Regarding `Cc1cc(N[C@@H]2CCC[C@H](Nc3ccnc4cc(Cl)ccc34)C2)nc(N2CCCCCC2)n1`, the GI50 is 1.74 µM and the TGI came to 5.72 µM. `NC(=O)c1c(NC(=O)c2ccccc2)sc2c1CCC(=O)C2`: the GI50 is 3.64 µM and the TGI was > 100 µM.

With `N[C@@H](Cc1ccccc1)C(=O)N1CCC[C@@H]1P(=O)(Oc1ccccc1)Oc1ccccc1`, the TGI is > 100 µM. Consider `Cc1c2n(c(=O)[nH]c1=O)C1OC(CO)C(N=[N+]=[N-])C1O2` (stereo not given), for which the TGI is > 100 µM.

As to `S=c1[nH]c(=S)c2cc3ccccc3nc2[nH]1`, the GI50 is 76.6 µM and the TGI is > 100 µM. Take `CN1CCOC1c1ccccc1O` (stereo not given): the TGI is > 100 µM.

With `c1ccc2c(OCCSCCCCCCCCCCSCCOc3cccc4ccccc34)cccc2c1`, the TGI was > 100 µM. On to `Clc1cc2c(c(CSc3nc4ccccc4n4cccc34)c1)OCOC2`, for which the GI50 is > 100 µM and the TGI was > 100 µM.

As to `O=[N+]([O-])C(=C(Nc1ccccc1)Nc1ccccc1)C(Cl)=C(Cl)Cl`, the TGI came to 44.2 µM.

Take `CC12CCC(=O)C[C@H]1CCC(OC=O)C2Br` (stereo not given in full): the TGI was > 100 µM. On to `COc1cc(C(=O)N2CCN(C(=O)c3cc(OC)c(OC)c(OC)c3)C2=S)cc(OC)c1OC`, for which the GI50 was 17.4 µM and the TGI was determined as 32.9 µM.

As for `O=C1OC(C2Cc3ccc4ccccc4c3C2=O)c2ccccc21` (stereo not given), the TGI came out at 98.2 µM. The same measure, in the same setting: next, `Oc1cc(Cl)cc2cccnc12`: > 100 µM; `NC(N)=NCCCC(=O)O`: > 100 µM.

Take `CCN1CN(c2ccccc2)C2(CCN(CC3COc4ccccc4O3)CC2)C1=O` (stereo not given): the TGI was > 100 µM. On to `CC1OC(c2ccc3c(OCc4ccccc4)cccc3c2O)CC(OCc2ccccc2)[C@H]1OCc1ccccc1` (stereo not given in full), for which the TGI is > 10 µM. Consider `COc1cccc(N2C(Cl)C(=O)C2c2c[nH]c3ccccc23)c1` (stereo not given), for which the TGI was > 100 µM.

Take `COc1ccc(-c2ccc(=O)oc2C#Cc2cc(OC)c(OC)c(OC)c2)cc1O`: the GI50 is 1.64 µM and the TGI was > 100 µM. For `O=C(/C=C/c1ccccc1)Oc1ccc(C(=O)/C=C/c2ccccc2)cc1`, the TGI was 26.1 µM. For `C=CCn1c(=O)c(C(=O)Nc2nc(C34CC5CC(CC(C5)C3)C4)cs2)c(O)c2ccccc21`, the TGI is > 100 µM. In the case of `CC(NC(=O)Cc1ccccc1)NC(=O)C(C)C(=O)Nc1ccccc1` (stereo not given), the TGI was > 100 µM. Compound `CC(=O)NC1C(OCc2ccccc2)OC(CO)C(O)C1OCC(=O)N[C@@H](C)C(=O)N[C@H](CCC(=O)NCCCNc1c2ccccc2nc2cccc([N+](=O)[O-])c12)C(N)=O` (stereo not given in full) yielded a TGI of 0.629 µM. Consider `COc1ccc2nc3ccccc3c(NCc3ccc(F)cc3)c2c1`, for which the GI50 was 1.75 µM and the TGI is 6.83 µM. `COc1ccc(OCC(=O)O)c2c1CCCC2=O`: the TGI is > 100 µM.
